Assay results published in paper PMC4336329 (PLoS ONE, 2015).
Hit rate of the full screen: of about 310,000 compounds, about 2,200 (0.71%) showed an effect of 50% or more. The effect is printed as a negative number. The list shows a part of the results.

These compounds were tested against human ether-à-go-go-related gene (hERG) potassium channel (human, UniProt Q12809) (assay: primary screen, population patch clamp on CHO cells stably expressing hERG).
human ether-à-go-go-related gene (hERG) potassium channel, sequence (Q12809 whole entry, looked up): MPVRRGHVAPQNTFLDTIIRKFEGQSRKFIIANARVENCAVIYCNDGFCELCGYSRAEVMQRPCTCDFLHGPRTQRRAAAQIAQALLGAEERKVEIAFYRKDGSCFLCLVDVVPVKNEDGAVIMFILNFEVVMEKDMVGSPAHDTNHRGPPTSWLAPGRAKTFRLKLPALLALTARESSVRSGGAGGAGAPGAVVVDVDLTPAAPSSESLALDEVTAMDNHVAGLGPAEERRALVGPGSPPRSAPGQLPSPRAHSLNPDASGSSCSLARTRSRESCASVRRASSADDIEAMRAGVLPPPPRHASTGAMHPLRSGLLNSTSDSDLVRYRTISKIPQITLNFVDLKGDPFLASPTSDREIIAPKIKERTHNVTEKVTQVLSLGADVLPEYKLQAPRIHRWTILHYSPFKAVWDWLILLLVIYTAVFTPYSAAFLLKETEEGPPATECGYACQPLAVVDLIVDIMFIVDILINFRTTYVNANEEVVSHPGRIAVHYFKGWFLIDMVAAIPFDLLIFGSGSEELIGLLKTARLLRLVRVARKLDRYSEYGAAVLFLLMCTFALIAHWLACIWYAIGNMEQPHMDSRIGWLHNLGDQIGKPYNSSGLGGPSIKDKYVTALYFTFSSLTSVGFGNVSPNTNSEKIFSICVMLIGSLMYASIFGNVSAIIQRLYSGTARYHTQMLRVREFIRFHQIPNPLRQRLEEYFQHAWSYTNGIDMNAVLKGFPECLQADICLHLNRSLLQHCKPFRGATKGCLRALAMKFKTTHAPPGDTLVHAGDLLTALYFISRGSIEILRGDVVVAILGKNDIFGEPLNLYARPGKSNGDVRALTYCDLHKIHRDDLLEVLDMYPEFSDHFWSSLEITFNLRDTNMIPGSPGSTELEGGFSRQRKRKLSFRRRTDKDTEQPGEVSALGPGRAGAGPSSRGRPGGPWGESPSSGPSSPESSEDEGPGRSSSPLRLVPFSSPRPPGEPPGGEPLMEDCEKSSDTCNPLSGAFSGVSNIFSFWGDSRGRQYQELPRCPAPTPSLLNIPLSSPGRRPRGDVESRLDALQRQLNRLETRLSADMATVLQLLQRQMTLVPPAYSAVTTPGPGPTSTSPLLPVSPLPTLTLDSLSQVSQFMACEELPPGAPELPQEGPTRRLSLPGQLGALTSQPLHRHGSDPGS

SMILES | hERG current change (%, negative = inhibition) at 1uM [%]
CCOc1ccccc1NC(=O)CCC(=O)Nc1nnc(C2CCCCC2)s1 | 24.7
COc1ccc(S(=O)(=O)N(C)C)cc1NC(=O)CSc1nnc(-c2cccnc2)o1 | 6.93
CCc1c(C)n([O-])c2c([n+]1=O)CCCCC2 | 4.86
Cc1c(Cl)cccc1Nc1nc(N)nc(CSc2nc3ccccc3s2)n1 | 9.73
COc1cc(/C=C(\C#N)c2nc3ccccc3n2C)cc(OC)c1O | -0.376
Cc1ccc(/C=C/c2nc3ccccc3c(=O)n2CCc2ccccc2)cc1 | 10.8
COC(=O)C1=C(CSc2nnnn2C)NC(=O)NC1c1cc(C)ccc1C (centres unmarked) | 8.34
CCC(C)NC(=O)CSc1nnc(-c2ccc(OC)c(OC)c2)c(-c2ccc(OC)c(OC)c2)n1 (centres unmarked) | 11.7
CCN(CC)Cc1csc2ccc(Br)cc12.Cl | 4.23
COCCCNC(=O)CCn1c(=O)c2ccccc2n(CC(=O)Nc2ccc(C)cc2C)c1=O | 15.6
COc1ccc(N2CCN(CCNC(=O)CCN3C(=O)COc4ccccc43)CC2)cc1 | -15
Cc1nc(SCc2ccccc2)c2oc3ccccc3c2n1 | 12.8
CC1(NC(=S)NCCO)CCS(=O)(=O)C1 (centres unmarked) | 12.8
CC(Oc1ccc(C(=O)c2ccccc2)cc1)C(=O)Nc1ccc(S(N)(=O)=O)cc1 (centres unmarked) | 10.4
Cc1cc(C(=O)NNC(=O)c2cccc(N(C)C)c2)c(C)o1 | 6.29
O=C(Cn1cnc2ccccc21)OCC(=O)N1CCc2ccccc2C1 | -1.89
COc1ccc2c(CC(=O)Nc3nc(C)cs3)coc2c1 | 5.62
COc1ccc(/C=C/C(=O)OCC(=O)Nc2ccc(Cl)c(S(=O)(=O)N(C)C)c2)cc1OC | 12.8
CCNc1nc(NCC)nc(NC(N)=S)n1 | 16.3
O=C(COc1ccc(Cl)cc1Cl)OCC(=O)N1CCCc2ccccc21 | 8.61
COc1ccccc1N1CCN(Cc2ccc(O)c3ncccc23)CC1 | 5.18
C=C(Cl)COc1ccc2c(CCCC)cc(=O)oc2c1 | 5.38
Nc1nc(SCC(=O)Nc2cccnc2Cl)n[nH]1 | 3.67

SMILES | hERG current change (%, negative = inhibition) at 1uM [%]
CC(C)(C)NC(=O)COC(=O)c1cc(Cl)ccc1[N+](=O)[O-] | 13.1
CC(=O)N1N=C(c2cccc(Cl)c2)OC1c1cccc([N+](=O)[O-])c1 (centres unmarked) | 14
Cc1ccc(OCCCOc2cccc3cccnc23)cc1C | 6.68
CCOC(=O)N/N=C1\CCS(=O)(=O)c2ccc(Cl)cc21 | 12.3
Cc1nn(Cc2ccccc2)c(C)c1NC(=O)CCC(=O)O | 6.42
Cc1cc(-c2csc(NC(=O)c3ccc(=O)[nH]c3)n2)c(C)n1Cc1ccco1 | 9.16
O=[N+]([O-])c1ccccc1S(=O)(=O)Nc1ncccn1 | 10.9
CCOC(=O)C1C(c2cccc(F)c2)NC(=S)NC1(O)C(F)(F)F (centres unmarked) | 10.1
COCCCNC(=O)CN(c1ccc(Cl)c(Cl)c1)S(C)(=O)=O | 4.16
Cn1cc(C(=O)NC2CCCCC2)c(=O)c2cc(S(=O)(=O)N3CCOCC3)ccc21 | 14
Cn1c(=O)c(C(=O)NCCc2ccc(Cl)cc2)c(O)c2ccccc21 | 15.6
COc1cccc(/C=N/N2CCN(C)CC2)c1.O=P(O)(O)O | 2.14
Cc1ccc(F)cc1NC(=O)N1CCNC(=O)C1CC(=O)Nc1cc(Cl)ccc1Cl (centres unmarked) | 12.1
Cc1cc(C(=O)Nc2ccc(F)cc2C)n(-c2ccccc2)n1 | 9.93
Cc1ccc2cc(NC(=O)c3cccc(F)c3)ccc2n1 | 1.58
COc1ccc(CCNC(=O)CN2C(=O)c3ccccc3C2=O)cc1 | 10.9
CCOc1ccc(C(C)NC(=O)c2cccc(F)c2)cc1 (centres unmarked) | 29.7
COc1ccc(S(=O)(=O)Nc2ccccc2C(=O)Nc2nc(-c3ccc(F)cc3)cs2)cc1OC | -3.98
CCOC(=O)c1c(NC(=O)COc2ncnc3sccc23)sc2c1CCC2 | 21.6
COC(=O)c1ccc(N2CCOCC2)c(NC(=O)c2ccc(Br)o2)c1 | 13.8
Cc1ccc(NC(=O)Cn2c(O)c(N=NC(N)=S)c3ccccc32)cc1 | 13.7
CC1CN=C(NCc2ccncc2)S1 (centres unmarked) | 11.1
CCOc1ccccc1C(=O)NCC(=O)NNC(=O)c1cccc(S(=O)(=O)Nc2ccc(OC)cc2)c1 | 8.96

SMILES | hERG current change (%, negative = inhibition) at 1uM [%]
Cc1ccc(CC(=O)O/N=C(\N)c2ccncc2)cc1 | 15.3
CCC(=O)N1c2ccccc2NC2=C(C(=O)CCC2)C1c1ccccc1 (centres unmarked) | 14
O=C(Nc1nn[nH]n1)c1cc(-c2ccc(Cl)c(Cl)c2Cl)nc2ccccc12 | 20.8
COc1ccnc2c1c(=O)n(Cc1cccc(F)c1)c(=O)n2C | 8.91
C/C=C(\C)CN1CCN(c2ccccc2)CC1 | 7.34
CC12CCC(=O)N1C(C(=O)Nc1ccc(Cl)c(Cl)c1)CS2 (centres unmarked) | -0.234
Cc1ccccc1OCC(=O)Nc1nnc(-c2ccncc2)s1 | 9.52
Cc1cc(C(F)F)n2ncc(C(=O)NC3CCCCCC3)c2n1 | 8.73
CC(CCN1CCN(c2ccccc2)CC1)c1ccccc1.Cl (centres unmarked) | -1.29
N#Cc1ccccc1Cn1c(-c2cscn2)nc2ccccc21 | -0.0773
COCCN1CCN(C(=O)C2CCC(=O)N(CCc3ccc(Cl)cc3)C2)CC1 (centres unmarked) | 8.76
Cc1[nH]n(-c2nc(-c3ccccc3)cc(=O)[nH]2)c(=O)c1CCO | 5.84
Cc1cc2c(Nc3ccc(O)cc3)ncnc2s1.Cl | 12.7
O=C1c2ccccc2C(=O)N1CCc1nc(-c2cccnc2)no1 | 7.12
Nc1ncc(Br)cc1S(=O)(=O)Nc1ccccc1F | 15.1
CC(=O)NC(CCS(C)(=O)=O)C(=O)Nc1c(C)cccc1C (centres unmarked) | 6.33
COc1ccc2c(c1)c(/C=N/Nc1ccc(C(=O)O)cc1)c(C)n2C | 18.3
Cc1cc(NCCCN2CCOCC2)n2ncc(-c3ccc(Cl)cc3)c2n1 | 12.8
Cn1c(=O)c2c3c(sc2n2c(SCC(N)=O)nnc12)CC(C(C)(C)C)CC3 (centres unmarked) | 8.14
CCOC(=O)C(=CNc1cscc1S(=O)(=O)C(C)C)C(=O)OCC | 13.8
CCN(CC)C(=O)C1CCC(CNS(=O)(=O)c2cccc3cccnc23)CC1 (centres unmarked) | 9.13
COC(=O)c1ccccc1NC(=S)NC(=O)COc1ccccc1Cl | -7.19
CCOc1ccc(OCCn2c(=S)[nH]c3c(N)ncnc32)cc1 | 10.3

SMILES | hERG current change (%, negative = inhibition) at 1uM [%]
CCOc1ccc(N2C(=O)c3ccc(C(=O)OCc4c(C)noc4C)cc3C2=O)cc1 | 9.07
CCOCCCn1c(SCC(=O)NC2CCCC2)nc2ccccc2c1=O | 7.96
CNC(=O)COc1ccc2oc3c(c2c1)CCCC3 | 12.7
COc1ccc(C(=O)OCC(=O)Nc2ccc3[nH]c(=O)[nH]c3c2)cc1 | 3.04
CCN1C(=O)C(=Cc2ccc(N3CCOCC3)o2)C(=O)N(CC)C1=S | 11.8
Cc1cc(C)cc(OCC(O)CN2CCN(C(=O)c3ccco3)CC2)c1 (centres unmarked) | 6.18
O=C(NCc1ccc2c(c1)OCO2)C1CCCN1C(=O)Nc1ccccc1 (centres unmarked) | 7.05
COc1cc(CN2CC(C)OC(C)C2)cc(OC)c1 (centres unmarked) | -2.68
Cc1ccc(N2C(N)=C(C#N)C(c3cccs3)C3=C2CC(C)(C)CC3=O)cc1 (centres unmarked) | 5.24
CCOc1ccc(-c2cccc(NS(=O)(=O)c3cc([N+](=O)[O-])ccc3C)c2)nn1 | -4.18
Cc1cc(C)c2nc(C)cc(Nc3ccc(C(=O)N4CCOCC4)cc3)c2c1 | 2.81
CN(C)CC1CSCCC1(O)c1ccccc1.Cl (centres unmarked) | 4.1
O=C(Nc1ncn[nH]1)c1ccc([N+](=O)[O-])cc1[N+](=O)[O-] | 18.3
CN(C(=O)c1ccc2c(=O)n3c(nc2c1)CCCCC3)c1ccccc1 | 9.35
Clc1ccc(/C=N/Nc2ccccn2)cc1 | 16.6
O=S(=O)(Cc1ccccc1)Nn1cnnc1 | 13.3
CCN1CCN(CCCNC(=O)c2ccc3c(Cl)c4c(nc3c2)CCCC4)CC1 | -8.96
Cc1ccccc1N1CC(C(=O)Nc2ccc(S(=O)(=O)N3CCOCC3)cc2)CC1=O (centres unmarked) | 8.31
CC1CN=C(N(C(=O)Nc2ccccc2)c2ccc(S(=O)(=O)N3CCOCC3)cc2)S1 (centres unmarked) | 1.89
CCCCCCc1c(O)c2ccccc2[nH]c1=O | 0.504
CCc1c(C)nc2nc(NC(C)=O)[nH]n2c1=O | 16.2
CC(C)SCc1nc2ccccc2[nH]1 | 1.34
CCCS(=O)(=O)N1CCC(C(=O)NCc2ccccc2Cl)CC1 | 10.2
